Assay results from article PMC11601948.
Read-outs that look alike come from different tables or passages of the source. No constants are given. Whether binding was seen depends on the method and setting. In cells and extracts the contact can be indirect. Some results given as binding are weak or reduced against the parent protein; the word gives no strength. For some of these results: Where a sequence is shown, tags or fusion partners need not be part of it.

Protein sequences, listed by entry. Tags and fused reporters are not part of them. Lines headed by an entry give the natural chain unless they say otherwise; changes in a name come on top.
UniProt P12956: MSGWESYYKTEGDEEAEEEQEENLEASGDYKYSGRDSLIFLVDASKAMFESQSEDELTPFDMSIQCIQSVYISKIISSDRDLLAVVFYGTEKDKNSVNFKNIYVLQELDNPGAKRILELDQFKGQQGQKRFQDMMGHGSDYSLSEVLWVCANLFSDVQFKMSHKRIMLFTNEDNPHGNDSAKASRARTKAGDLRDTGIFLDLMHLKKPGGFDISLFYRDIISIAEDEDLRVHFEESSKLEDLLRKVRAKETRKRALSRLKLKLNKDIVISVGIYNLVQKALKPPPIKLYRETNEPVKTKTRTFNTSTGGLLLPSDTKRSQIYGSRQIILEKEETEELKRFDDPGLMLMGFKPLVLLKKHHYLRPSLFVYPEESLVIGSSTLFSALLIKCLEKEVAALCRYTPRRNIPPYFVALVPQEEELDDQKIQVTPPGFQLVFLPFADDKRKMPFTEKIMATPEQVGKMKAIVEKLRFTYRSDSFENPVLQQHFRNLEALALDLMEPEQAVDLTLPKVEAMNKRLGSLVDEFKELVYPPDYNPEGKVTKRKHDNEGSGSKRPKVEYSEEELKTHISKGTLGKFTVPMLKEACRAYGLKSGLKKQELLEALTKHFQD
UniProt P23475: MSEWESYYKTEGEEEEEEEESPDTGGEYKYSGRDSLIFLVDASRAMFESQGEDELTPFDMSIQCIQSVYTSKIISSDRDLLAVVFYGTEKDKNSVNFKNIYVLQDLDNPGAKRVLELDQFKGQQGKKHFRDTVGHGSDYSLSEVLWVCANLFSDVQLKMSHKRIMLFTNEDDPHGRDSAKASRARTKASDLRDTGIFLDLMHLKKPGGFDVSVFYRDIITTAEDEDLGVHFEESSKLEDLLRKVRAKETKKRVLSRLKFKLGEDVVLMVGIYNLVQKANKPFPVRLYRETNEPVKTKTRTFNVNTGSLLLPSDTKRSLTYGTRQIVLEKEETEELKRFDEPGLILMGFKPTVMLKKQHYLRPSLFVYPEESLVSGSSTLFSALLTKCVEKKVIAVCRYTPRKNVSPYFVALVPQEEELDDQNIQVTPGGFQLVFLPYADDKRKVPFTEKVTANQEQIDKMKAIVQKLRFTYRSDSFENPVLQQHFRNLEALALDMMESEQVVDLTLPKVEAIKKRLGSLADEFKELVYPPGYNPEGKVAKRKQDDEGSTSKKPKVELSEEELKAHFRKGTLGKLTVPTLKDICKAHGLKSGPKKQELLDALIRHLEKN

T1: Foxp3, endogenous in mouse iTregs (mouse (endogenous in iTregs)) (UniProt Q99JB6)
T1 sequence: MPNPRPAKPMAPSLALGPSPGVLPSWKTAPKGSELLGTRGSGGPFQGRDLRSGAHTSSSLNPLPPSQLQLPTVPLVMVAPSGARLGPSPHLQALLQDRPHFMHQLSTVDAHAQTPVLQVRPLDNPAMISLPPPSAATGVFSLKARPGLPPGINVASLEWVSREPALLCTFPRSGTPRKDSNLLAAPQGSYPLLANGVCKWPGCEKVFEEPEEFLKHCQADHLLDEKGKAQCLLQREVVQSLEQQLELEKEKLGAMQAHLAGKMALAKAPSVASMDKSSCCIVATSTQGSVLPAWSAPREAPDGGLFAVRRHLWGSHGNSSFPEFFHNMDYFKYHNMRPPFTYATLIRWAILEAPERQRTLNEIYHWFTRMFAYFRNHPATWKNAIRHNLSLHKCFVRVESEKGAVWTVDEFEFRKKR


How the values were obtained:
[1] = target: FOXP3, endogenous in human iTregs (human (endogenous in iTregs)) (UniProt Q9BZS1); assay: co-IP; endogenous IPs with anti-Ku70 or anti-FOXP3 antibody in human iTregs induced in vitro; Western blot
Flag-FOXP3 [2] = target: Flag-FOXP3 (UniProt Q9BZS1); assay: co-IP; HEK293T cotransfected with Flag- and Myc-tagged plasmids; RIPA lysate; IP with anti-Flag antibody plus protein A/G beads at 4°C; Western blot
[3] = target: T1, Foxp3, endogenous in mouse iTregs (mouse (endogenous in iTregs)); assay: co-IP; endogenous IPs with anti-Foxp3 or IgG antibody in mouse iTregs (from WT or cKO mice) after 5 days of induced differentiation; Western blot
Flag-FOXP3 [4] = target: Flag-FOXP3 (UniProt Q9BZS1); assay: co-IP; HEK293T cotransfected with Flag-FOXP3/Myc-Ku70; DNase I (10 U) added to the lysate; IP with anti-FLAG antibody; Western blot
Flag-Ku70 [5] = target: Flag-Ku70 (UniProt P12956); assay: co-IP; HEK293T cotransfected with Flag- and Myc-tagged plasmids; RIPA lysate; IP with anti-Flag antibody plus protein A/G beads at 4°C; Western blot
Flag-Ku70 [6] = target: Flag-Ku70 (UniProt P12956); assay: as above; remark: listed apart in the source

| Molecule | binding (Flag-FOXP3 [2]) | other results |
| --- | --- | --- |
| Ku70, endogenous in human iTregs (from UniProt P12956 1-609) |  | binding [1]: binds |
| Ku70-N2 (amino acids 1–351), Myc-tagged (from UniProt P12956 1-351) (domain or fragment) | no binding |  |
| Ku70-C2 (amino acids 500–609), Myc-tagged (from UniProt P12956 500-609) (domain or fragment) | no binding |  |
| Ku70-C1 (amino acids 351–609), Myc-tagged (from UniProt P12956 351-609) (domain or fragment) | binds |  |
| Ku70-N1 (amino acids 1–500), Myc-tagged (from UniProt P12956 1-500) (domain or fragment) | binds |  |
| Ku70, endogenous in mouse iTregs (from UniProt P23475 1-608) |  | binding [3]: binds |
| Myc-Ku70 full-length (WT) (from UniProt P12956 1-609) | binds | binding (Flag-FOXP3 [4]): binds |
| FOXP3-C2 (238–431 aa), Myc-tagged (from UniProt Q9BZS1 238-431) (domain or fragment) |  | binding (Flag-Ku70 [5]): no binding |
| FOXP3-C1 (268–431 aa), Myc-tagged (domain or fragment, UniProt Q9BZS1 268-431) KASSVASSDKGSCCIVAAGSQGPVVPAWSGPREAPDSLFAVRRHLWGSHGNSTFPEFLHNMDYFKFHNMRPPFTYATLIRWAILEAPEKQRTLNEIYHWFTRMFAFFRNHPATWKNAIRHNLSLHKCFVRVESEKGAVWTVDELEFRKKRSQRPSRCSNPTPGP |  | binding (Flag-Ku70 [6]): no binding |
